This note sets out measurements from patent US20250207109A1, “ENGINEERED SPLIT DHFR-BASED METHODS AND SYSTEMS FOR SELECTING CELLS THAT HAVE STABLY ACQUIRED A HETEROLOGOUS POLYNUCLEOTIDE” (DNA Twopointo, Inc., priority 2022, published 2025).

In this test the test system is Jurkat cells. Put plainly: Split DHFR complementation assay, methotrexate selection of Jurkat cells expressing DHFR fragment fusion proteins. It counts as cell-based, human. The conditions noted are these: 0.2 μM methotrexate, two weeks; rimiducid 100 nM for FKBP12.6tr pair. From the text: The truncated version of FKBP12.6 carrying the F36V substitution (SEQ ID NO: 192) was fused at its carboxy terminus to the two fragments of murine DHFR as in Example 1, with one of the fragments bearing the L22F and F31S substitutions to confer methotrexate resistance (SEQ ID NOs: 190 and 191).
As a control, the P7A/P8A pair of DHFR fragment fusion proteins (involving SEQ ID Nos: 188 and 189) was also used. Whereas the P7A/P8A pair of constructs co-expressed the DHFR fragments with a red fluorescent protein (RFP; plobRFP) or a blue fluorescent protein (BFP; mTagBFP2), both FKBP12.6 tr transposons carried a BFP transgene.
Jurkat cells were co-transfected by electroporation (ThermoFisher Neon; 100 μl tips; 1350V, three 10 ms pulses) with pairs of plasmids carrying transposons encoding the two DHFR fragments (7.5 μg of each) together with mRNA encoding the Leap-In Transposase® enzyme (2 μg). The cells were plated in RPMI-1640 medium supplemented with fetal bovine serum (10% vol/vol) and methotrexate (0.2 μM). Rimiducid at 100 nM was added to the medium of cells that had been transfected with the FKBP12.6tr pair of plasmids.
At left is the result for cells expressing the DHFR fragments fused to the P7A/P8A heterodimerizing coiled-coil peptides. […] Untransfected cells were analyzed under identical conditions as a control (at right).

B1: FKBP12.6tr_F36V-based fusion proteins: truncated FKBP12.6 carrying F36V fused at its carboxy terminus to the two fragments of murine DHFR (protein)
chain 1: [about 100 residues omitted here]SGGGSVRPLNCIVAVSQNMGIGKNGDFPWPPLRNESKYFQRMTTTSSVEGKQNLVIMGRKTWFSIPEKNRPLKDRINIVLSRELKEPPRGAHFLAKSLDDALRLIEQPEL
chain 2: [about 100 residues omitted here]SGGGSASKVDMVWIVGGSSVYQEAMNQPGHLRLFVTRIMQEFESDTFFPEIDLGKYKLLPEYPGVLSEVQEEKGIKYKFEVYEKKD
In the case of B1, the “methotrexate resistance / survival of transfected cells” value is “allowed survival in the presence of methotrexate”.
